Assay results taken from PubChem BioAssay AID1477 (National Center for Advancing Translational Sciences (NCATS), 2009).
Screen size: about 230,000 compounds; fewer than 10 were called active. The inconclusive results got no clear call from the source; some entries with a clear call stand among them for comparison. The call rests on the fitted dose curve; in most records, active means well fitted curve in the direction sought with a large enough effect; inconclusive means small, poorly fitted or top-dose-only effect, or effect the other way, or another doubt; inactive means no such curve, though single readings can be large or run the other way. No potency is given beside an inconclusive call; the fits are too rough.

Target: Runt-related transcription factor 1 (Homo sapiens) + Core-binding factor subunit beta (Homo sapiens) (UniProt Q01196+Q13951)
Assay: qHTS Assay for Compounds Blocking the Interaction Between CBF-beta and RUNX1 for the Treatment of Acute Myeloid Leukemia; on activity, negative = inhibition: % of control where 0% means no effect
Details: AlphaScreen CBFb-His/RUNX1-biotin binding, biochemical; activity, negative = inhibition: at 59.8 µM (top of the series) unless noted
Procedure, shortened: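 CBFb-His/RUNX1-biotin, 30 nM each, preincubated 20 min RT; compound 15 min RT; Ni + streptavidin beads 50 ng each, 90 min RT; AlphaScreen read.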

Sequence of UniProt Q01196 (Q01196 whole entry, looked up): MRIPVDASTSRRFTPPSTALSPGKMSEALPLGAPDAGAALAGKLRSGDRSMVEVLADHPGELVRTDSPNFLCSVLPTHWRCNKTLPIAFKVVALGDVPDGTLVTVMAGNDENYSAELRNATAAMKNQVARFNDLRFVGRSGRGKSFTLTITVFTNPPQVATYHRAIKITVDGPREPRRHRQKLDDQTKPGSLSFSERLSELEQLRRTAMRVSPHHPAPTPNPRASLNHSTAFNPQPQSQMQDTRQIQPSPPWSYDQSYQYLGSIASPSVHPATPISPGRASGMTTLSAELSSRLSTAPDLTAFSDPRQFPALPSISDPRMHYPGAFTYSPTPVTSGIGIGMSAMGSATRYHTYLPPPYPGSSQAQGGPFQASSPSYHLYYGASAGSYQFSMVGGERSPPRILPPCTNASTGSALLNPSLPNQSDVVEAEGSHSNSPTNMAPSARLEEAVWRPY
Sequence of UniProt Q01196 (Q13951 whole entry, looked up): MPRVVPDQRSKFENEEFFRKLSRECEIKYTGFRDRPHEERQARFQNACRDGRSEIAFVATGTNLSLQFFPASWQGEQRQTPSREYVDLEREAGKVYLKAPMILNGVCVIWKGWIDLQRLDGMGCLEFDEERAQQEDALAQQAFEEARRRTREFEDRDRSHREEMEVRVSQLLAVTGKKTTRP

| SMILES | Potency | activity, negative = inhibition |
| --- | --- | --- |
| C/C(=N\NC(=S)NC1CCCCC1)c1c(F)cccc1F | inconclusive [inhibitor, single point] | – |
| COc1cccc(/C=N/NC(=O)c2ccc([N+](=O)[O-])cc2Cl)c1O | inconclusive [inhibitor, single point] | – |
| CCSc1nc(-c2ccc(OC)cc2)ccc1C#N | inconclusive [activator, partial curve] | – |
| NS(=O)(=O)c1cccc2c1c([N+](=O)[O-])cc1[nH]c(=O)c(=O)[nH]c12 | inconclusive [inhibitor, full curve] | – |
| CCCC1=C/C(=C/c2ccc(-c3ccccc3OC)o2)C(=O)O1 | inconclusive [inhibitor, single point] | – |
| O=C1SCCc2c1n(Cc1ccccc1)c1ccccc21 | inconclusive [activator, partial curve] | – |
| Cc1ccc(NC(=S)c2nc3ccccc3s2)cc1 | inconclusive [inhibitor, partial curve] | – |
| COc1ccc(CCN(C)C(=O)c2ccc(S(=O)(=O)NCc3ccco3)cc2)cc1OC | inconclusive [activator, single point] | – |
| COc1ccc(/C=N/Nc2ccccn2)cc1OC | – | inactive: -6.98% |
| COc1ccc(-c2ccc(/C=N/NC(=O)c3cccnc3)o2)c([N+](=O)[O-])c1 | inconclusive [activator, full curve] | – |
| COc1ccc(OC)c(NC(=O)c2ccc3c(=O)n(CCc4ccccc4)c(=S)[nH]c3c2)c1 | inconclusive [inhibitor, single point] | – |
| COc1ccc(Br)cc1/C=c1\sc2nc(-c3ccco3)nn2c1=O | inconclusive [inhibitor, partial curve] | – |
| Cc1nc(Oc2ccccc2)c2ccsc2n1 | inconclusive [activator, full curve, poor fit] | – |
| OC[C@@H]1[C@@H](c2ccccc2)C(c2ccccc2)=NN1c1ccccc1 | inconclusive [activator, partial curve] | – |
| CCNC(=O)C1=C(O)c2sccc2N(C)S1(=O)=O | – | inactive: 1.9% |
| O=C(O)c1ccc2c(c1)C(=O)/C(=C\c1ccco1)C2=O | inconclusive [inhibitor, partial curve] | – |
| N#C/C(=C\c1ccccc1[N+](=O)[O-])c1nc(C2CC2)cs1 | inconclusive [inhibitor, partial curve] | – |
| CN(C)c1ccc(NC(=O)CCn2c(=S)oc3ccccc32)cc1 | inconclusive [inhibitor, partial curve] | – |
| O=C1CN(c2nc(-c3ccccc3)c3cc(Cl)ccc3n2)c2ccccc2N1 | – | inactive: 5.25% |
| O=C(CON=C1c2ccccc2-c2ccccc21)NC12CC3CC(CC(C3)C1)C2 | inconclusive [activator, single point] | – |
| C=CCOc1ccc(CNc2ccc3[nH]c(=O)[nH]c3c2)cc1OC | inconclusive [activator, partial curve] | – |
| COc1c(N2CCNC(C)C2)c(F)cc2c(=O)c(C(=O)O)cn(C3CC3)c12 (stereo unspecified) | inconclusive [inhibitor, single point] | – |
| CCOc1cccc(OCCOCCN(C)Cc2ccccc2)c1 | – | inactive: 2.39% |
| Cc1nn(-c2ccccc2)c(N)c1-c1ccccc1 | – | inactive: 3.33% |

| SMILES | Potency | activity, negative = inhibition |
| --- | --- | --- |
| CCOC(=O)COc1nc(-c2ccccc2)cc(-c2ccco2)c1C#N | inconclusive [activator, partial curve, poor fit] | – |
| CN(C)C(=O)/C(=C\c1ccc(-c2cccc([N+](=O)[O-])c2)o1)NC(=O)c1ccccc1 | inconclusive [activator, single point] | – |
| N=C1S/C(=C\c2ccco2)C(=O)N1c1nccs1 | inconclusive [inhibitor, single point] | – |
| CCOC(=O)C1=C(C)NC(C)=C(C(=O)OCC)C1C(=O)O | – | inactive: 3.82% |
| O=C(c1cccc(F)c1)N1CCN(C(=O)c2nn3cccnc3c2Cl)CC1 | inconclusive [activator, full curve] | – |
| O=C(OCC(=O)N1CCCC1)c1ccc(NS(=O)(=O)c2cccs2)cc1O | – | inactive: 11.1% |
| Cc1ccc2cc(C3C(C#N)=C(N)Oc4c3ccc3cccnc43)c(=O)[nH]c2c1 (stereo unspecified) | inconclusive [inhibitor, single point] | – |
| CC(=O)c1cccc(NC(=O)CN(c2ccccc2)S(C)(=O)=O)c1 | inconclusive [activator, single point] | – |
| CCN1C(=O)C(CC(=O)Nc2ccc(OC)cc2)N(Cc2ccco2)C1=S (stereo unspecified) | inconclusive [activator, single point] | – |
| O=C(COc1ccccc1)Nc1ccc(NC(=O)c2ccco2)cc1 | inconclusive [activator, full curve, poor fit] | – |
| CCOc1cc(CNc2ccc(N3CCCC3)cc2)cc(Cl)c1OC | inconclusive [inhibitor, partial curve] | – |
| COc1ccc(C2=NNC(c3cccs3)=Nc3ccc(OC)cc32)cc1 | inconclusive [inhibitor, single point] | – |
| C[C@H]1C(c2ccc(F)cc2)=NN(c2ccccc2)[C@@H]1CO | inconclusive [activator, partial curve] | – |
| O=C(Nc1cccnc1)c1cc(-c2ccc(F)cc2)on1 | inconclusive [activator, single point] | – |
| CCSc1nc2ccccc2n1CC(=O)N1CCOCC1 | inconclusive [inhibitor, single point] | – |
| O=C(CSc1nc2[nH]ncc2c(=O)n1-c1ccccc1)NCc1cccs1 | inconclusive [activator, partial curve] | – |
| Cc1nn2c(CN(C(=O)CN3CCOCC3)c3ccccc3)nnc2c2ccccc12 | – | inactive: -1.77% |
| CSCCC(NS(=O)(=O)c1ccc(Br)cc1)C(=O)OCC(=O)NC1CC1 (stereo unspecified) | – | inactive: -3.49% |
| CCOC(=O)c1[nH]cnc1C(=O)Nc1ccc(C)cc1 | – | inactive: 14.7% |
| COC(=O)c1cc(C(=O)c2cccc(Cl)c2Cl)cn1C | – | inactive: 3.67% |
| Cc1cccc(NC(=O)c2cc3ccccc3o2)c1 | inconclusive [activator, partial curve, poor fit] | – |
| CCCNC(=O)c1ccc(Cl)cc1Cl | inconclusive [inhibitor, single point] | – |
| CCOc1cc(N2CCOCC2)c(OCC)cc1NC(=O)Cc1cccc2ccccc12 | inconclusive [inhibitor, partial curve] | – |
| CN(C)c1nc(Cl)nc(N(C#N)CCOc2ccccc2)n1 | – | inactive: 0.351% |

| SMILES | Potency | activity, negative = inhibition |
| --- | --- | --- |
| CCOC(=O)c1cccc2c1-c1ccccc1/C2=N/O | – | inactive: 0.807% |
| COc1ccccc1N1C(=O)C=C(Sc2nc(C)cc(C)n2)C1=O | – | inactive: -12.8% |
| COc1ccccc1-n1c(O)c(/C=N/NC(=S)Nc2ccccc2)c(=O)[nH]c1=S | inconclusive [inhibitor, single point] | – |
| COc1ccc(Cn2c(/C=C/c3ccccc3)nc3ccccc32)cc1 | inconclusive [activator, single point] | – |
| COc1cc2c(cc1OC)CN(CC(=O)Nc1cccc(C)c1)CC2 | – | inactive: -13.7% |
| O=c1/c(=C\c2cccnc2)sc2nc3ccccc3n12 | – | inactive: 13% |
| CC1=C(C(=O)N(C)C)C(c2ccc(N3CCOCC3)cc2)NC(=O)N1 (stereo unspecified) | inconclusive [activator, partial curve, poor fit] | – |
| Cc1conc1NC(c1cccs1)c1ccc2cccnc2c1O (stereo unspecified) | inconclusive [inhibitor, single point] | – |
| Cc1cccc(C(=O)Nc2nnc(-c3ccco3)o2)c1 | inconclusive [inhibitor, partial curve] | – |
| O=C(/C=C/c1ccccc1)C1C(=O)c2ccccc2C1=O | – | inactive: -2.27% |
| Oc1ccc(C(=S)N2CCCCCC2)cc1 | – | inactive: -1.57% |
| C=CCN1C=C2C(=O)C(C)(OC(=O)c3ccc(OC)cc3)C(=O)C(c3ccco3)=C2C=C1CCCC (stereo unspecified) | inconclusive [inhibitor, single point] | – |
| CC(NC(=O)Cc1ccccc1F)c1ccc(F)cc1 (stereo unspecified) | – | inactive: 5.36% |
| c1nc2sc3c(c2c2nnnn12)CCC3 | – | inactive: 1.58% |
| O=C(Nc1ccccc1F)c1coc(=O)c(Br)c1 | inconclusive [inhibitor, single point] | – |
| COc1ccc(C(=O)CSc2nnc(CNc3ccc(C)cc3C)n2Cc2ccco2)cc1 | inconclusive [inhibitor, single point] | – |
| COC(=O)c1cn(CCOc2ccccc2)c2ccccc12 | inconclusive [activator, partial curve] | – |
| O=C(N/N=C/c1ccc(OCc2ccccc2)cc1)c1cc[n+](Cc2ccccc2)cc1 | inconclusive [inhibitor, single point] | – |
| COc1ccccc1NS(=O)(=O)c1cccc(NC(=O)C2CC(=O)N(Cc3ccccc3)C2)c1 (stereo unspecified) | inconclusive [inhibitor, single point] | – |
| NC(C(=O)O)c1cc(=O)[nH]o1 (stereo unspecified) | inconclusive [inhibitor, partial curve] | – |
| CC(C)c1ccc(N2C(=O)NC(=O)/C(=C/C=C/c3ccco3)C2=O)cc1 | inconclusive [inhibitor, single point] | – |
| Clc1ccc(C(c2ccccc2Cl)C(Cl)(Cl)Cl)cc1 (stereo unspecified) | inconclusive [activator, partial curve, poor fit] | – |
| CCCCNC(=O)OC(C)CNC(=O)Oc1cccc(C)c1 (stereo unspecified) | – | inactive: -1.43% |
